# In the supplement of paper PMC3334620:
# In all, about 33,000 sequences were measured (“E-score (-0.5 to 0.5)”: median about -0.021, highest 2% from about 0.32 on). The list shows a part of the results.
# Biological target: T1, Zap1 (UniProt P47043)
# T1 sequence: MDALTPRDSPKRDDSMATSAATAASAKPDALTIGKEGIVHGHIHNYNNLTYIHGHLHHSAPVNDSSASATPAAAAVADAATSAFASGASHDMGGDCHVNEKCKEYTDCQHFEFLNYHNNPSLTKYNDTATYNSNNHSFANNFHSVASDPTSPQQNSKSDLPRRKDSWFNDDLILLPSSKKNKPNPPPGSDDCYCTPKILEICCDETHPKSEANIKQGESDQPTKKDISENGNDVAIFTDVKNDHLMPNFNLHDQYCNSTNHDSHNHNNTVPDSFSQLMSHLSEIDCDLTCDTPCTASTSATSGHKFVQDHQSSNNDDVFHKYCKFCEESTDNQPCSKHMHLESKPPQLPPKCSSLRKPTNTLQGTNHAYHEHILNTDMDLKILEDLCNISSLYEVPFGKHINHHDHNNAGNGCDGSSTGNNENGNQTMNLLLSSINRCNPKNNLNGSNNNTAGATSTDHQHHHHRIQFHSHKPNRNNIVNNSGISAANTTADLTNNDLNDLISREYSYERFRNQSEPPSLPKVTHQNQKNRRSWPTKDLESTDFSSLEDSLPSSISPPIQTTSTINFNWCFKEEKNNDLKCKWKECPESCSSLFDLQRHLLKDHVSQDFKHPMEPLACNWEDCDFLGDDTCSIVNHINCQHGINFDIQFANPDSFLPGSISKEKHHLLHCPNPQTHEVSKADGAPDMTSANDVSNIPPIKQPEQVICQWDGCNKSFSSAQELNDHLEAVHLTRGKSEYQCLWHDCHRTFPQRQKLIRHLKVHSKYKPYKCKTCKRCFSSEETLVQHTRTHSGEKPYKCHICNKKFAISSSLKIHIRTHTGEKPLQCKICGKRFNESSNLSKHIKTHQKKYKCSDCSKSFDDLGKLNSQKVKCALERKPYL
# Assay: PBM E-score (8-mer binding enrichment) (E-score (-0.5 to 0.5)); higher = stronger / more preferred TF binding; most listed sequences are background and not binding sites
# Conditions: protein concentration: 200 nM; construct: GST-full length
# Description: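 Universal 'all 10-mer' protein binding microarrays (Agilent AMADID 015681) probed with GST-tagged S. cerevisiae TFs (full-length or DBD) made by in vitro transcription/translation (PURExpress), about 100-200 nM. Bound TF was detected with fluorescent anti-GST. Each ungapped 8-mer (which stands for itself and its reverse complement) is scored by the PBM enrichment score (E-score), a modified Wilcoxon-Mann-Whitney statistic from -0.5 to +0.5, computed with the Universal PBM Analysis Suite. Scale: above 0.35 generally sequence-specific binding.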
row,Sequence,PBM E-score
1,GAACCCAA,0.152
2,GGATCTCA,-0.138
3,CGTGATAC,-0.231
4,AATGCGGC,-0.16
5,GTATGGGA,-0.246
6,GAGGTAGC,0.0662
7,AATAGTGT,0.0982
8,ACAAAACG,0.133
9,CGGTCACA,0.163
10,ACCGGTCC,-0.143
11,AAGTCGTG,-0.119
12,AGCAGACC,0.058
13,CCTCTGTA,-0.0834
14,GACTAACA,0.156
15,GCCAACAA,0.192
16,GGAGGGGA,-0.0565
17,CCAGCAAG,-0.11
18,CACGGCCA,0.0868
19,CCTATGCC,-0.0867
20,TGCGGTAA,0.256
21,CGGGGCAG,-0.349
22,CCGACGAG,-0.079
23,CTGGAGGA,-0.216
24,CTTGAATC,-0.171
25,CAAGATCC,-0.174

row,Sequence,PBM E-score
1,TCATAGCA,-0.142
2,CACCCAAG,-0.0295
3,GAGAACTA,-0.0397
4,TACCCCCA,0.054
5,AGCCTTAC,-0.305
6,CGTGCTGA,-0.0725
7,AACCTAGG,0.232
8,AAACGACG,0.00215
9,GCCGGGAA,-0.233
10,CAGCATCC,-0.128
11,CCGAGGGC,-0.0779
12,GATCCTGA,-0.0316
13,CTACTACC,0.295
14,TGCCTTAA,-0.0666
15,ACACGTAA,-0.226
16,GGTTAAAA,0.385
17,GGGAGACC,-0.19
18,GTGATGTA,0.013
19,AACCCGCC,0.178
20,CTCACGCC,-0.147
21,GTACAGAA,0.181
22,CACACTGA,0.00589
23,ATATAGGG,0.094
24,GTCGCCCA,-0.132
25,CTTGTCAC,-0.0304

row,Sequence,PBM E-score
1,CGTGGGTA,0.116
2,CTGAGTCC,-0.0582
3,AGCATGAC,-0.0372
4,AGATGTGG,0.023
5,AATCGATC,-0.142
6,GCAAGTAC,-0.117
7,AAGACAAG,-0.0435
8,GAAAGGGC,-0.114
9,TTCTCCAA,-0.0979
10,CGCTAACG,-0.105
11,GCAAGGCC,-0.117
12,ATATCCAA,0.127
13,CCTAAACA,0.0597
14,CCGAGCGC,-0.0896
15,TAGTCTAA,-0.0202
16,AATTGTTC,0.116
17,ATCCTAGA,-0.174
18,AGGGTACG,0.296
19,ACAGTAGA,0.0781
20,CAGTAGGG,0.0465
21,GGCGCGGA,-0.0798
22,ATAGTCGG,-0.217
23,AGTGTGAC,0.0192
24,ACGTCCCC,-0.107
25,CCGAAGCC,-0.237

row,Sequence,PBM E-score
1,CAGTGCGA,-0.233
2,CCGGACTC,0.04
3,AGCTGATG,0.0633
4,CAGTACAG,0.091
5,GCCCAACA,-0.175
6,AATTAGTC,0.12
7,AATCCCCT,0.0541
8,CAGGCTTC,-0.169
9,ACTGGTCA,0.258
10,GATTATAA,0.237
11,AAAGGATA,0.215
12,AGCGGTAC,0.169
13,ATTGAGAG,-0.0133
14,AAGGGCAT,-0.0978
15,AATCACAA,-0.0184
16,AGTCCGAT,-0.205
17,GTCTCAAC,-0.0462
18,CGGCTCAC,-0.0726
19,CGCGAGCC,0.0842
20,CCGGGGAA,-0.199
21,AATGGAAA,0.0883
22,GCAGAGAA,0.0366
23,GCCGGTCC,-0.19
24,AAGCAGAG,-0.136
25,ACTCCTGC,-0.22

row,Sequence,PBM E-score
1,GCAGACCA,-0.131
2,ATCTCGGG,0.058
3,GCACTTTA,0.00491
4,ACGCGACA,-0.084
5,CATCTTAG,-0.0955
6,ATCGATAG,0.263
7,GTTTACCA,0.0041
8,GTAGGGGA,-0.124
9,ATCACCTC,0.18
10,AGCGTCCC,-0.0153
11,ATGCCAAT,-0.136
12,GAATAAAC,0.0267
13,ACGCGACT,-0.221
14,ACGAGGAA,0.0176
15,GCGTGGTA,0.15
16,CCGTCGCA,-0.013
17,CAATACGG,-0.0128
18,CATTCGGG,0.177
19,AGCAAGTG,-0.101
20,AATTTATA,0.151
21,CATGAAGG,0.168
22,ACTAGCTC,-0.137
23,CCGTCTCA,-0.063
24,GCGCGTCA,-0.0157
25,ATTGGAGG,-0.161

row,Sequence,PBM E-score
1,CGACTACC,0.143
2,ATGCGACC,0.156
3,GCATCCAA,-0.203
4,ATGGTTAA,0.357
5,CTTGTTAC,0.118
6,AAGGCCTT,0.101
7,CGCAAATA,0.139
8,CCCTCACC,0.0335
9,GCCGCCAA,-0.118
10,GGGCGTCA,-0.0847
11,GATTTCAC,-0.071
12,ACGAAATC,0.162
13,GAACATGC,-0.277
14,ATCAGCAC,-0.0542
15,AATTCAAT,0.00565
16,AGCGATCG,0.0228
17,CAATCGCC,0.0386
18,AGTCGAAC,-0.103
19,ACCCAATA,0.0229
20,AGCGCTGC,-0.264
21,ATAACATG,-0.0351
22,CAACACAA,0.214
23,CATGCGCA,-0.0197
24,ACGCCCTG,-0.154
25,GCGCGGCC,0.104

row,Sequence,PBM E-score
1,TGGGGTAA,0.347
2,AATGGGCT,-0.158
3,AACCGGAA,0.159
4,CCGACGCA,-0.301
5,AAGAGGGG,-0.0326
6,CCGCGTCG,-0.0481
7,GCTTTAAA,-0.0466
8,GATAATAC,0.067
9,ACGCAGGA,-0.0923
10,ATACATAT,0.233
11,AATGTAAG,-0.0104
12,CAGAGTGC,-0.204
13,AGCCTCTA,-0.101
14,CCCACCCC,0.149
15,ACATCTTG,-0.2
16,AATAAACG,0.117
17,AGATATTC,-0.041
18,AGGCCAAG,-0.148
19,CATGTGTA,0.113
20,AGGAGCAC,-0.00984
21,CGAATGCA,-0.144
22,AACAGGGA,0.044
